# The other results are listed elsewhere or left out. The main result of the screen is listed elsewhere. These columns were measured beside it and carry no call.
# Key:
# Assay in all cases: Primary Screen for Target Class Profiling of Small Molecule Inhibitors of Methyltransferases
# [1] = target: Glycine N-methyltransferase (Homo sapiens) (UniProt Q14749); conditions: purified enzyme, MTase-Glo SAH luminescence; measured here: GNMT inhibition; at 40 µM; stronger effect = lower value
# Procedure, shortened: (§1)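 Each enzyme was reacted with SAM and its substrate, with compounds tested once at 40 uM; SAH formed was read by MTase-Glo luminescence.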
# [2] = target: Guanidinoacetate N-methyltransferase (Homo sapiens) (UniProt Q14353); conditions: purified enzyme, MTase-Glo SAH luminescence; measured here: GAMT inhibition; at 40 µM; stronger effect = lower value
# Procedure, shortened: as §1
# [3] = target: Histamine N-methyltransferase (Homo sapiens) (UniProt P50135); conditions: purified enzyme, MTase-Glo SAH luminescence; measured here: HNMT inhibition; at 40 µM; stronger effect = lower value
# Procedure, shortened: as §1
# [4] = target: Nicotinamide N-methyltransferase (Homo sapiens) (UniProt P40261); conditions: purified enzyme, MTase-Glo SAH luminescence; measured here: NNMT inhibition; at 40 µM; stronger effect = lower value
# Procedure, shortened: as §1
# [5] = target: Phenylethanolamine N-methyltransferase (Homo sapiens) (UniProt P11086); conditions: purified enzyme, MTase-Glo SAH luminescence; measured here: PNMT inhibition; at 40 µM; stronger effect = lower value
# Procedure, shortened: as §1
# % is scaled to controls: 0 for no effect and ±100 for the full control effect.
Structure (SMILES),"activity change, negative = inhibition [1]","activity change, negative = inhibition [2]","activity change, negative = inhibition [3]","activity change, negative = inhibition [4]","activity change, negative = inhibition [5]"
O=C(c1ccco1)N1c2ccccc2CC1c1nnc(C2CCOCC2)o1 (stereo not given),-0.86%,4.02%,1.66%,-2.58%,15.3%
Cc1cc2ncc(-c3ccccc3)nc2cc1C,–,-24.6%,–,-33.8%,-22.4%
COc1ccc(CCNc2nc3c(S(=O)(=O)c4ccccc4)nnn3c3ccccc23)cc1OC,-30.2%,0.719%,9.16%,6.93%,2.36%
CC1=C[C@H](O)[C@H]2C(C)(C)CCC[C@]2(C)[C@@]1(O)CO,3.33%,4.94%,12.2%,-7.57%,6.88%
COCC1CN(C)CC12CCN(S(=O)(=O)Cc1ccc(F)cc1)CC2 (stereo not given),-7.87%,-1.32%,-2.13%,-7.63%,5.36%
COC(=O)c1c(CC=C(C)C)c(OC2OC(CO)C(O)C(O)C2O)c2ccccc2c1OC1OC(CO)C(O)C(O)C1O (stereo not given),2.87%,5.55%,3.23%,-8.98%,6.92%
O=c1c2ccccc2n2c(=O)n(Cc3cccc(Cl)c3)nc2n1Cc1ccccc1,7.58%,0.44%,13%,2.1%,7.73%
CCS(=O)(=O)N1CCCCCCNC(=O)[C@@H]2C[C@@H](C(=O)N3CCc4ccccc4C3)C[C@@H]21,-6%,-8.49%,-5.08%,-6.77%,-7.07%
O=C(O)C[C@@H]1CCN(C(=O)C2CCCC2)C[C@@H]1CCN1CCCCC1,-3.33%,-4.82%,-1.08%,-5.66%,-5.22%
CC1CCCCC1NC(=O)C1(C)Cn2c(cc3occc32)C(=O)N1CCc1ccccc1 (stereo not given),-3.28%,0%,0.042%,-1.6%,-1.77%
O=C(CCn1ccc2cc(S(=O)(=O)N3CCCCC3)ccc21)NCc1ccco1,-4.25%,-0.889%,0.933%,-4.22%,-1.78%
CCCn1c(=O)c2ccc(Cl)cc2n2c(=O)n(CC(=O)NCc3ccc(Cl)cc3)nc12,-5.18%,0%,7.66%,-5.68%,-4.95%
COc1ccc(Cl)cc1NC(=O)N1CCn2cccc2C1C(C)C (stereo not given),3.38%,0%,-0.556%,-2.97%,-1.42%
CN(Cc1ccco1)C(=O)c1cc2n(n1)CC(C)(C(=O)NC1CCCCC1)N(C)C2=O (stereo not given),4.96%,0%,10.1%,9.5%,5.88%
CC[C@@]1(C(=O)O)C[C@H](C(=O)N(C)CCO)[C@H](c2ccc(F)cc2)N1C,-14.9%,-10.3%,-3.78%,-15.4%,4.17%
O=C(c1ccc[nH]c1=O)N1CC(F)(F)C[C@H]1c1nc(C2CC2)no1,-2.7%,-1.77%,-0.716%,-3.49%,2.88%
Cc1nn2c(c1-c1ccccc1Oc1ccccc1)N(C(=O)c1cccc(C#N)c1)CCC2,-6.13%,0.807%,0.246%,-15.9%,-1.42%
Cn1cnc2c(F)c(Nc3ccc(Br)cc3F)c(C(=O)NOCCO)cc21,-4.1%,-2.98%,6.64%,-16.8%,5.16%
CCCCOC(=O)NC(=O)C1c2ccccc2Oc2ccccc21,2.95%,-38.6%,4.44%,-31.5%,-6.93%
O=C1NC2(CCN(Cc3ccsc3)C2)COc2ccccc21 (stereo not given),-6.37%,-1.58%,-10.9%,-5.82%,-21.1%

Structure (SMILES),"activity change, negative = inhibition [1]","activity change, negative = inhibition [2]","activity change, negative = inhibition [3]","activity change, negative = inhibition [4]","activity change, negative = inhibition [5]"
Cc1ccc(C)c(NC(=O)Cn2c(=O)c3ccc(Cl)cc3n3nncc23)c1,-6.04%,0%,-2.44%,-3.7%,-7.6%
COc1c(C(C)C)c(O)c(O)c2c1C(OC)[C@H]1OC(=O)[C@@]23CCCC(C)(C)[C@H]13 (stereo not given in full),2.95%,0.427%,9.56%,-12.9%,6.17%
CC[C@H](CC#N)OC(=O)N[C@@H](C)c1cccc(NC(=O)Nc2ccc(-c3cnco3)c(OC)c2)c1,-2.71%,12.3%,-27.8%,-20.5%,-0.84%
COCc1nncn1C1CCN(S(=O)(=O)c2ccc(Br)cc2)CC1,-1.65%,-23.8%,-3.93%,-11.6%,-10.3%
C=C(C)[C@H]1CC[C@]2(C(=O)O)CC[C@]3(C)C(CCC4[C@@]5(C)CCC(=O)C(C)(C)C5CC[C@]43C)C12 (stereo not given in full),-7.61%,-4.45%,3.07%,-22.2%,-11.6%
O=C1[C@H]2CN(Cc3c[nH]c4ccccc34)C[C@H]2C(=O)N1CCc1ccccc1,-6.37%,-5.6%,-4.05%,-6.83%,3.19%
CC1CC(C)CN(S(=O)(=O)c2ccc3c(c2)oc(=O)n3CC(=O)N2C(C)CCCC2C)C1 (stereo not given),-5.76%,5.3%,-4.24%,3.65%,-6.42%
CC(C)OCCCN1C(=O)c2cnn(-c3ccccc3)c2-n2cccc2C1C(=O)NC1CCCCCC1 (stereo not given),-6.76%,1.86%,-0.209%,3.25%,-2.98%
CCn1c(CN(C)C)nnc1C1CCN(Cc2ccc(-n3ccnc3)cc2)CC1,-0.521%,-1.73%,-4.69%,3.84%,1.01%
Nc1ccc(-c2cnc(N)c(-c3ccc(Cl)cc3)c2)cn1,–,4.49%,–,-37.4%,-5.03%
C=C1CC[C@H]2[C@@](C)(CCC(O)[C@@]2(C)CO)[C@@H]1C/C=C(/C(=O)O)C(O)CO (stereo not given in full),-0.038%,-2.94%,8.29%,-12.8%,-2.92%
COc1ccc(-n2[nH]c(=O)c3[nH]c4cc(Cl)ccc4c(=O)c3c2=O)c(C)c1,-5.91%,-16%,-3.24%,-26.6%,-24.5%
O=C(C[C@@H]1CCNC[C@@H]1Cc1cc(CC2CCCCC2)on1)NC1CCCCC1,-1.78%,-7.59%,-3.63%,-12.3%,-7.37%
COCc1ncc(C)n1CC1CCN(C(=O)C2(c3ccc(OC)cc3)CC2)CC1,-0.75%,1.67%,1.64%,-0.729%,0.905%
O=C(CCn1ccc2cc(S(=O)(=O)N3CCCCC3)ccc21)NCc1cccc(F)c1,7.63%,6.22%,4.61%,0.633%,0.23%
COc1ccc(C(=O)N2CC(CO)C3(CCNCC3)C2)cc1 (stereo not given),-5.5%,-5.84%,-2.66%,-11%,-10.5%
C[C@@H]1O[C@@H](O[C@H]2[C@@H]3C=CO[C@@H](O[C@@H]4O[C@H](CO)[C@@H](O)[C@H](O)[C@H]4O)[C@@H]3[C@@]3(CO)O[C@@H]23)[C@H](O)[C@H](OC(=O)/C=C/c2ccc(O)cc2)[C@H]1OC(=O)/C=C/c1ccc(O)cc1,1.78%,1.46%,7.54%,-10.8%,-0.597%
Cc1cc2c(cc3n2CC(C)(C(=O)NC2CCCCCC2)N(Cc2cccc(Cl)c2)C3=O)o1 (stereo not given),2.28%,0%,8.03%,6.01%,3.39%
CSc1ccc(CNC(=O)CCn2ccc3cc(S(=O)(=O)N4CCC(C)CC4)ccc32)cc1,3.11%,0%,7.48%,2.79%,3.42%
COC(=O)c1ncn2c1C(=O)N(Cc1ccccc1C)C(C)(C(=O)NC1CCCC1)C2 (stereo not given),-3.02%,5.21%,1.21%,5.05%,0.641%

Structure (SMILES),"activity change, negative = inhibition [1]","activity change, negative = inhibition [2]","activity change, negative = inhibition [3]","activity change, negative = inhibition [4]","activity change, negative = inhibition [5]"
COc1cc2c(Nc3cc(F)c(Cl)c(Cl)c3)ncnc2cc1OCC1CCCN(C)CCC1,-63.3%,-59.2%,-86.7%,-80.4%,-74.9%
COc1ccc(N2C(=O)c3cc4oc(C)cc4n3CC2(C)C(=O)NC2CCCCCC2)cc1Cl (stereo not given),6.72%,0%,8.69%,1.4%,2.67%
O=C(NC1CC1)[C@@H]1C[C@H](Oc2cccnc2)CN1C(=O)c1ccccn1,-0.127%,-0.535%,1.52%,-7.93%,10.8%
Cc1ccc(CNC(=O)C2CCCN(c3cnn(Cc4ccccc4)c(=O)c3)C2)o1 (stereo not given),-5.76%,-0.267%,-0.631%,-4.32%,-1.46%
Cc1ccc2c(c1)c(-n1cccc1)c1n2CC(C)(C(=O)NC2CCCCC2)N(Cc2cccnc2)C1=O (stereo not given),-7.14%,0%,-3.37%,-18.9%,-2.48%
CCCn1c(=O)c2cc(Cl)ccc2n2c(=O)n(CC(=O)Nc3ccc(C)cc3Cl)nc12,-1.12%,-1.5%,3.37%,0.637%,-2.68%
COc1ccccc1CN[C@H]1CC(C)(C)[C@@H]2C[C@@](C)(O)CC[C@]12CCC(=O)NCCc1c[nH]c2ccccc12,-14.5%,-6.22%,-42.8%,-15.9%,-1.08%
CN(c1ccccc1)S(=O)(=O)C1CCS(=O)(=O)C1 (stereo not given),-4.98%,-2.59%,-3.05%,-9.9%,6.19%
COc1cc2nc(N3CCCCC3)nc(NC3CCN(C)CC3)c2cc1OC,-5.1%,–,-85.9%,-4.46%,17.4%
CC(=O)O[C@@H]1[C@H]2[C@@H](OC(=O)c3ccccc3)[C@@H](C)C[C@]2(O)[C@H](OC(C)=O)[C@@]2(C)[C@@H]3CC(C)(C)C(=O)[C@]3(OC(C)=O)C[C@@]12C,-1.18%,-6.11%,6.53%,-21.2%,0.328%
Cc1ccccc1NC(=O)CSc1nnc2n(CCc3ccccc3)c(=O)c3ccccc3n12,1.13%,0%,6.41%,0.324%,3.36%
O=S(=O)(NCCn1c(CCc2ccccc2)nc2ccccc21)c1ccc2c(c1)CCCC2,-2.48%,-1.99%,2.31%,-19.6%,-0.589%
O=c1cc(N2CCOCC2)oc2c(N3CCN(c4ccccn4)CC3)nccc12,-4.26%,-0.661%,-2.82%,-29.9%,-0.805%
CCOc1ccc(CNC(=O)CNC(=O)C2(C)Cn3c(cc4ccccc43)C(=O)N2C)cc1 (stereo not given),3.75%,0%,8.47%,0.551%,5.68%
CC(C)OCCCNC(=O)C1(C)Cn2c(cc3ccccc32)C(=O)N1Cc1ccc2c(c1)OCO2 (stereo not given),-2.98%,4.86%,-0.241%,4.48%,-0.605%
CCNc1ncc(C(=O)N[C@H](C2CCNCC2)C2CC(O)C2)cn1 (stereo not given in full),-1.6%,2.27%,-23%,-4.13%,-18.1%
CC/C=C\[C@H](O)[C@H](O)C1=C(C)C(=O)[C@]2(O1)C(=O)N[C@@](OC)(C(=O)c1ccccc1)[C@@H]2O,-2.97%,1.61%,1.1%,-9.06%,-2.14%
COCC1(CNS(=O)(=O)c2ccc(Cl)cc2)C[C@@H](O)[C@@H](O)C1 (stereo not given in full),-2.3%,0.395%,-22.5%,-17.7%,-9.63%
